# About 1,100 (0.39%) of roughly 280,000 compounds were called active. This list was built around the results that the source calls inconclusive (neither active nor inactive); the mix of calls is not that of the screen. The call rests on the fitted dose curve; in most records, active means well fitted inhibition curve with a large enough effect; inconclusive means small, poorly fitted or top-dose-only effect, or effect the other way; inactive means flat fitted curve, though single readings scatter. No potency is given beside an inconclusive call; the fits are too rough.
# Target: Microtubule-associated protein tau (Homo sapiens) (UniProt P10636)
# Experiment: qHTS for Inhibitors of Tau Fibril Formation, Fluorescence Polarization; further: nearly all actives have a fitted effect of over 55% in size
# Conditions: K18 P301L tau heparin fibrillization, Alexa594 FP, 6 h; series mostly up to 57.7 µM
# How it was run: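 FP of Alexa 594-tau after heparin (20 uM) induction. Substrate: human K18 P301L, 15 uM unlabeled, 0.24 uM labeled. Buffer 100 mM sodium acetate pH 7. 6 hr, 37 C.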
# Potency means the concentration at half of the fitted maximal effect; tags describe the fitted curve by direction and shape.
# Sequence of UniProt P10636 (P10636 whole entry, looked up): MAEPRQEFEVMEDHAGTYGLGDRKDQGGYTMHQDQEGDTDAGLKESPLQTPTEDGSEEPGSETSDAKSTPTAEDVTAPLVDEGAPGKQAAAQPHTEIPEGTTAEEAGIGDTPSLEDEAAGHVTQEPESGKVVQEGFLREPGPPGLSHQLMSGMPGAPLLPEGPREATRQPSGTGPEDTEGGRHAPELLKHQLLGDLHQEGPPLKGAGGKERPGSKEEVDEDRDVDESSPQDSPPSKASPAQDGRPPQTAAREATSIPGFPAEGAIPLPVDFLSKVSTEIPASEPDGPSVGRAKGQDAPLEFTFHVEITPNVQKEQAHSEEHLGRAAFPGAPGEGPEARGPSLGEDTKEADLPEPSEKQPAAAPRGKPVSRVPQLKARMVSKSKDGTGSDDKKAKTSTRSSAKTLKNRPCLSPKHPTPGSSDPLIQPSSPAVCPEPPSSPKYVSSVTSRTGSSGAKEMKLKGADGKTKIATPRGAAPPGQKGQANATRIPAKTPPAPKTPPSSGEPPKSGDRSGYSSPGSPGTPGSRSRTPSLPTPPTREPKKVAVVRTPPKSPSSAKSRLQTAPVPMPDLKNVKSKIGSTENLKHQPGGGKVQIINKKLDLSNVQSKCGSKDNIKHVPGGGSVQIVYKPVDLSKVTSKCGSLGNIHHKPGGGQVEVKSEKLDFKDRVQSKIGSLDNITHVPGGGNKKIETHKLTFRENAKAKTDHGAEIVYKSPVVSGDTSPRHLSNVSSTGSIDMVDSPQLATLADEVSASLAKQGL
row,Compound,Potency
1,CC(C)C1/C(=N/O)CC(c2ccccc2)NC1c1ccccc1 (centres undefined),"inconclusive [inhibitor, single point]"
2,CCOC(=O)c1scc(-c2ccc(C)cc2)c1S(=O)(=O)Nc1cccc(CC)c1,inactive
3,COc1ccc(-n2c(SCC(=O)Nc3nnc(C)s3)nc3c([nH]c4ccccc43)c2=O)cc1,"inconclusive [inhibitor, single point]"
4,O=C(O)CC(NS(=O)(=O)c1ccc(Br)s1)c1ccccc1 (centres undefined),inactive
5,CCN1C(C(=O)c2ccccc2)=C(OC(=O)COc2ccccc2)c2ccccc2S1(=O)=O,inactive
6,CCn1ccnc1CNC(=O)CC1C(=O)NCCN1Cc1ccccc1F (centres undefined),inactive
7,Cc1ccc(OCCSc2ncnc3sc(C)c(C)c23)cc1C,"inconclusive [activator, single point]"
8,O=C1CC(SC(=NCc2ccc3c(c2)OCO3)Nc2ccccc2)C(=O)N1 (centres undefined),"inconclusive [inhibitor, single point]"
9,CCOc1ccc(/C=C/c2nc(C#N)c(NC3CCCCC3)o2)cc1,"inconclusive [activator, partial curve, poor fit]"
10,CC(C)c1ccc(/C=N/NC(=O)CN(c2cccc(Cl)c2Cl)S(C)(=O)=O)cc1,"inconclusive [inhibitor, single point]"
11,COc1ccccc1-c1nnc(SCC(N)=O)o1,inactive
12,CCN(CC)CCNC(=O)c1ccc(-c2nc(CS(=O)(=O)c3ccc(C)cc3)c(C)o2)cc1,"inconclusive [inhibitor, single point]"
13,COc1ccc(NC(=O)c2cccc(S(=O)(=O)Nc3ccc(Br)cc3)c2)cn1,"inconclusive [inhibitor, partial curve]"
14,C=CCN1C(=O)S/C(=C\c2ccc(N3CCOCC3)cc2C)C1=O,inactive
15,O=C(Cc1csc(Nc2nc(=S)[nH]c3ccccc23)n1)N1CCN(c2cccc(Cl)c2)CC1,"inconclusive [inhibitor, partial curve]"
16,COc1ccc(-c2cc(C(F)(F)F)n3nc(C(=O)O)c(Cl)c3n2)cc1OC,inactive
17,COc1ccc(C(=O)O/N=C(\C)c2nccs2)cc1,inactive
18,Cc1nc2ccccc2c(=O)n1NC(=O)COc1ccccc1,inactive
19,COc1cc(/C=C2/C(=O)N=C(N)N2C)cc(OC)c1OC,"inconclusive [inhibitor, single point]"
20,CC(C)(C)OC(=O)N1CCC(c2c(C(=O)NCCN3CCCC3)cnn2-c2ccc(Cl)cc2)CC1,inactive
21,COc1ccc(NC(=O)Cn2cnc3ccc(S(=O)(=O)N4CCC(C)CC4)cc3c2=O)cc1Cl,"inconclusive [inhibitor, full curve]"
22,O=C(NCc1ccco1)c1csc2c1CCCCC2,inactive
23,Cc1nc2c(o1)CCc1ccccc1C2N1CCN(C)CC1 (centres undefined),inactive

row,Compound,Potency
1,Cc1ccc(OC(=O)c2ccc(N3CCOCC3)c([N+](=O)[O-])c2)cc1,inactive
2,CC(C)(C)c1nc(SCC(=O)c2ccccc2)c2ccccc2n1,"inconclusive [inhibitor, single point]"
3,COc1ccc(-n2nc3c(c2NC(=O)c2ccc(S(=O)(=O)N4CCOCC4)cc2)CS(=O)C3)cc1 (centres undefined),inactive
4,Cc1ccc(-c2nc3c(c(=O)[nH]c(=O)n3Cc3ccccc3)n2Cc2ccccc2)o1,"inconclusive [inhibitor, single point]"
5,Cc1ccccc1NC(=O)CSc1nc2ccc(NC(=O)c3ccccc3)cc2s1,"inconclusive [inhibitor, partial curve]"
6,Cc1cccc(N2CCN(C(=O)c3cc4n(n3)C(C(F)(F)F)CC(c3ccco3)N4)CC2)c1C (centres undefined),"inconclusive [activator, partial curve]"
7,Cc1cccc(NNC(N)=S)c1,"inconclusive [inhibitor, single point]"
8,COc1ccc(C(=O)c2ccc(Cl)cc2)c2ccccc12,"inconclusive [inhibitor, partial curve]"
9,O=C(CN1C(=O)S/C(=C\C=C\c2ccccc2)C1=O)Nc1ccc(O)cc1,"inconclusive [inhibitor, single point]"
10,CCCCSc1nnc2c(n1)OC(C(=O)c1ccccc1)Nc1ccccc1-2 (centres undefined),"inconclusive [inhibitor, partial curve]"
11,CSc1nnc(NC(=O)C2CCCCC2)s1,inactive
12,C/C(N)=C(/C#N)C(=O)CSc1cc(C)c2cc(C)cc(C)c2n1,"inconclusive [inhibitor, partial curve]"
13,CCO[C@@H]1OC(C(=O)N2CCN(Cc3ccc4c(c3)OCO4)CC2)=C[C@H](c2csc3ccccc23)[C@H]1CCCO,"inconclusive [activator, partial curve]"
14,Cc1ccc(S(=O)(=O)N2CCN(C(=O)CN3CCOCC3)C2c2ccccc2)cc1 (centres undefined),"inconclusive [inhibitor, full curve, poor fit]"
15,Cc1ccsc1C(=O)NNC(=O)Nc1ccc(Cl)c(Cl)c1,"inconclusive [inhibitor, single point]"
16,O=C(CSc1nnc(Cn2nnc(-c3ccccc3)n2)n1-c1ccccc1)Nc1ccc(F)cc1,"inconclusive [inhibitor, partial curve]"
17,CNc1ccc(Br)cc(C(=O)/C=C/c2ccc(OC)cc2)c1=O,"inconclusive [inhibitor, partial curve]"
18,CCOC(=O)c1ccc(NC(=O)Nc2ccc3snnc3c2)cc1,active: 11.2 µM
19,COc1ccccc1[C@@H]1C(c2cccc(C)c2)=NN(c2ccccc2)[C@H]1C(=O)N1CCOC1=O,"inconclusive [activator, partial curve]"
20,CC(C)(C)C(=O)NC(NC(=S)Nc1sc2c(c1C#N)CCCC2)C(Cl)(Cl)Cl (centres undefined),inactive
21,O=C1CCCCCN1Sc1ccccc1,"inconclusive [inhibitor, partial curve]"
22,COc1ccc(OC)c(CNC(=O)c2ccccc2NC(=O)c2nsc3ccccc23)c1,"inconclusive [inhibitor, full curve, poor fit]"
23,Cc1cc(C)c(NC(=O)Cn2c(=O)n(CCc3ccccc3)c(=O)c3ccccc32)c(C)c1,"inconclusive [inhibitor, single point]"

row,Compound,Potency
1,Cc1onc(-c2ccccc2Cl)c1C(=O)Oc1ccc(Br)cc1,"inconclusive [inhibitor, single point]"
2,CC1=C(C(=O)Nc2ccccc2)C(c2cccc(O)c2)n2nc(-c3ccccc3Cl)nc2N1 (centres undefined),"inconclusive [inhibitor, single point]"
3,Cc1ccc(-c2csc3ncnc(OCC(=O)NC(=O)NCc4ccco4)c23)cc1,"inconclusive [inhibitor, single point]"
4,Nc1c(NCCCN2CCOCC2)c2ccccc2oc1=O,"inconclusive [inhibitor, single point]"
5,O=C(Nc1ccc(Cl)c(Cl)c1)Oc1ccc(NC(=O)c2ccco2)cc1,"inconclusive [inhibitor, partial curve]"
6,CCOc1ccccc1OCc1nn2c(COc3ccccc3)nnc2s1,inactive
7,COc1cc2cc(Oc3ccc4ccc(=O)oc4c3)c(=O)oc2cc1OC(=O)/C=C/c1ccccc1,"inconclusive [inhibitor, single point]"
8,CC/C(O)=C(\C#N)c1nnc2n1CCCCC2,inactive
9,COc1cccc2cc(-c3cn4c(n3)sc3cc(F)ccc34)c(=O)oc12,"inconclusive [inhibitor, single point]"
10,COc1ccc(NS(=O)(=O)c2ccc(NC(=O)c3ccc(Br)cc3)cc2)nn1,inactive
11,COC(=O)c1cc2oc3ccccc3c2n1CC(=O)Nc1cc(OC)cc(OC)c1,"inconclusive [inhibitor, single point]"
12,CCCn1c(SC(C(=O)Nc2cc(C)ccc2OC)c2ccccc2)nc2ccccc2c1=O (centres undefined),inactive
13,O=C(CC(c1ccco1)C1CCCCC1=O)c1ccco1 (centres undefined),inactive
14,Cc1ccc(NC(=O)CN(C)S(=O)(=O)c2ccc3c(c2)CCC(=O)N3)c(C)c1,"inconclusive [inhibitor, partial curve, poor fit]"
15,COc1ccc(/C=C/C(=O)c2cc(Br)ccc(=O)c2O)cc1,"inconclusive [inhibitor, partial curve]"
16,CSc1ncc(Cl)c(C(=O)Nc2nc3ccc(F)cc3s2)n1,"inconclusive [inhibitor, single point]"
17,C=CCNC(NC(=O)c1ccccc1)(C(=O)OCC)C(F)(F)F (centres undefined),inactive
18,CCOc1cc(/C=N\NC(=O)c2ccc(NC(=O)C(C)(C)C)cc2)ccc1OC(=O)c1cccc(C)c1,"inconclusive [inhibitor, partial curve]"
19,Cn1c(CBr)c(C(=O)c2ccc([N+](=O)[O-])cc2)c(=O)n(C)c1=O,"inconclusive [inhibitor, single point]"
20,CC(Oc1ccc(F)cc1)C(=O)Nc1ccc2ccccc2c1 (centres undefined),"inconclusive [inhibitor, full curve, poor fit]"
21,O=c1c2ccccc2oc2ccccc12,inactive
22,O=C(Nc1ccc(Cl)cc1)N[C@@H]1c2c(ccc3ccccc23)OC[C@@H]1CO,active: 31.6 µM
23,CCOc1cccc(/C=N/NC(=S)Nc2ccccc2[N+](=O)[O-])c1O,"inconclusive [activator, partial curve]"

# Source: PubChem BioAssay AID1468 (National Center for Advancing Translational Sciences (NCATS), 2008)
